In ChEMBL document CHEMBL4888484, “Replenishing the malaria drug discovery pipeline: Screening and hit evaluation of the MMV Hit Generation Library 1 (HGL1) against asexual blood stage Plasmodium falciparum ,using a nano luciferase reporter read-out” (2022):
In all, about 150,000 compounds went through this assay and about 540 (0.36%) showed an effect of 50% or more. The list shows a part of the results.

test system: Plasmodium falciparum; assay: Primary screen in NF54 nanoGlo assay, in single point, at 2uM, 72h; a lower Z score goes with more inhibition; type: functional, Erythrocyte; settings: timepoint 72 hour

Row | Structure (SMILES) | % Inhibition | Z score
1 | CCOC(=O)c1ccc(NC(=O)[C@@H]2CN(S(C)(=O)=O)c3cc(C)ccc3O2)cc1 | 0% | -0.04
2 | O=C(Cn1cccc1-c1nc(-c2ccc3c(c2)OCO3)no1)N1CCN(c2ccccc2F)CC1 | -3% | 0.42
3 | O=C(c1ccccn1)N1CCN(Cc2ccccc2F)[C@@H]2CS(=O)(=O)C[C@@H]21 | -9% | 1.45
4 | O=C(O)c1ccccc1N(Cc1ccc(Br)cc1)C(=O)c1ccco1 | 6% | -0.8
5 | S=c1sc2c(N3CCN(C/C=C/c4ccccc4)CC3)ncnc2n1-c1ccccc1 | -9% | 1.05
6 | CCN1CCN([C@H]2CCN(c3cc(Cl)ccc3C#N)C2)CC1 | -9% | 1.34
7 | CC1CCN(C(=O)c2nc(Cn3cnc4ccccc4c3=O)no2)CC1 | 9% | -1.25
8 | Cc1oc(-c2cc(C(F)(F)F)ccc2Cl)cc1-c1nnc(-c2ccco2)o1 | -2% | 0.37
9 | CC(=O)N1CCC(NC(=O)N2CCC[C@H]2c2cccs2)CC1 | -16% | 2.04
10 | CCN(C(=O)c1cnc(C)nc1C)c1cccc(F)c1 | -10% | 0.99
11 | COc1ccc(-c2nc(C)nc(C(F)(F)F)c2-c2csc(C)n2)c(O)c1 | -10% | 0.9
12 | CCc1cc(NCC2(N3CCCC3)CCCC2)ncn1 | -6% | 0.95
13 | COC(=O)c1ccccc1C(=O)N1CCC(Oc2ccc(C)nn2)CC1 | -1% | 0.14
14 | COc1ccc(S(=O)(=O)Nc2ccccc2C(=O)Nc2cccc(C)n2)cc1 | -3% | 0.28
15 | N#Cc1cc2n(n1)CCCN(CC(=O)NCC1CCCCC1)C2 | -3% | 0.54
16 | O=C(NC[C@@H]1CCCN2CCCC[C@H]12)c1cc2c(Cl)cccc2s1 | -1% | 0.09
17 | Cc1ccc(C)c(OCc2nc(CC(=O)NCc3ccco3)cs2)c1 | -11% | 1.62
18 | CCCCN=C(NCc1ccccc1)NC(C)C | 7% | -1.14
19 | COC[C@H]1NC(=O)CC[C@H]1C(=O)N1CCN(c2ccccc2OC)CC1 | -9% | 1.06
20 | O=C1COc2c(cccc2NC(=O)N2CC(F)(F)OC(F)(F)C2)N1 | -11% | 1.57
21 | Cc1ccc(C(=O)Nc2cc3c4c(c2)C2CCCC2CN4CC2CCCC32)cc1 (stereo unspecified) | 57% | -4.94
22 | O=C(O)c1cc(C2CC2)nc2c1c(C1CC1)nn2-c1ccc(F)cc1 | -13% | 1.47
23 | O=C1CCC(=O)N1c1ccc(-c2nc3ccccc3o2)cc1 | -24% | 4.78
24 | CC1Cc2ccccc2N1CC(O)COCc1ccco1 (stereo unspecified) | 6% | -0.77
25 | CCO/N=C(/NCc1ccccc1)c1nonc1N | 4% | -0.57
26 | C[C@H](NC(=O)c1cncn1-c1ccc(-c2cc(C(F)(F)F)cc(C(F)(F)F)c2)cc1)C(C)(C)C | 9% | -1.16
27 | C=CCn1c(=O)c2sc(N(CC)CC)nc2n(CC(=O)Nc2ccccc2CC)c1=O | -13% | 1.13

Row | Structure (SMILES) | % Inhibition | Z score
28 | CN1CCN(c2ncccc2CNC(=O)c2nccnc2N)CC1 | -7% | 0.88
29 | CCN1CCN(c2nc3ncn(CC(=O)Nc4cc(Cl)ccc4C)c(=O)c3s2)CC1 | 3% | -0.43
30 | COc1ccccc1[C@H](CNC(=O)CN1C(=O)CCC1=O)OC | 21% | -2.66
31 | CNc1nc(C)cc(-c2cccc(C(=O)N[C@@H](C)c3csc(C)n3)c2)n1 | 4% | -0.35
32 | C[C@@H](CS(C)(=O)=O)NCC(C)(C)c1cccc(Br)c1 | -4% | 0.49
33 | O=C(Nc1snnc1C(=O)N1CCN(c2ccccn2)CC1)N1CCOCC1 | 4% | -0.64
34 | Cc1ccc(Cl)cc1CNC(=O)N1CCS(=O)(=O)CC[C@@H]1C | -1% | 0.19
35 | O=C(CCc1ccsc1)N1CCC2(CC1)CC(=O)N(C[C@H]1CCCO1)C2 | -2% | 0.5
36 | CCc1ccc(-c2cnc(O)nc2)cc1 | -12% | 1.95
37 | COc1cncc(C(=O)N2CC(C)(C)[C@@H]2C(C)C)n1 | -18% | 1.95
38 | COCCN(C(=O)NCc1ncccn1)[C@H]1CCOC1 | -9% | 1.36
39 | O=S(=O)(Cc1ccc(Cl)cc1Br)NCC1CC1 | -13% | 1.95
40 | Cc1ccc(-c2cc(NC(=O)c3ccccc3)c(=O)n(CC(=O)Nc3ccc4c(c3)OCO4)n2)cc1 | -7% | 1.21
41 | CC[C@@H](C(=O)NCCN1CCCC1)n1cccn1 | -26% | 2.64
42 | Cc1ccc2c(c1)nc(CNC(=O)N1CCCCC[C@H]1c1c(C)n[nH]c1C)n2C | 14% | -1.37
43 | C[C@@H]1CN(C[C@@H]2CN(CCOCc3ccccc3)C[C@@H]2CO)C[C@H](C)O1 | 27% | 0.41
44 | Cc1ccc(Nc2nc(N)nc(CN3CCOCC34CCC4)n2)cc1 | 17% | -2.02
45 | CCCc1nc(C)c(CN2CCC[C@@](O)(c3ccccc3)CC2)o1 | -8% | 1.02
46 | COc1ccc(NC(C)=O)cc1NC(=O)CCCN1C(=O)c2ccncc2C1=O | -11% | 1.13
47 | O=C(Cn1cc(C2CC2)nn1)NCC1CC12CCCc1ccccc12 (stereo unspecified) | -10% | 1.4
48 | CC(C)[C@](C)(O)C#CCN1CCCCC1 | 0% | 0.06
49 | O=C(Cn1c(=O)[nH]c2c(-c3ccccc3)c[nH]c2c1=O)N1CCOCC1 | -3% | 0.4
50 | C=CCNS(=O)(=O)c1ccc(OCCCC)c(C(C)C)c1 | -24% | 2.78
51 | COCCN1C[C@]2(CCCN(C(=O)c3n[nH]nc3C)C2)CCC1=O | -3% | 0.33
52 | CC1CCC(C(=O)NCC(O)C(C)(C)C)O1 (stereo unspecified) | -18% | 1.58
53 | CCc1nnc([C@@H]2CC(F)(F)CN2Cc2cnn(C(C)C)c2)o1 | -3% | 0.56
